In PubChem BioAssay (NCATS):
The shares of active, inactive and inconclusive entries below differ from those in the screen. For some of these results: Potencies beside an inconclusive call are fits to weak or partial responses and may not hold up. For some of these results: “Side channel” marks fits to a control or component signal instead of the main read-out. The source made the active and inactive calls. Unless noted, calls come from the whole dose curve.

Assays:
[1] = biological target: Estrogen receptor (Homo sapiens) (UniProt P03372); experiment: qHTS assay for small molecule antagonists of estrogen receptor alpha signaling (AID 588513; active = well fitted curve in the direction sought with a large enough effect in the signal ratio, with a control signal flat, not every such curve was filed as active; inconclusive = small, poorly fitted or top-dose-only effect, or effect the other way, or a change in a side signal; inactive = no such curve, though single readings can be large or run the other way; the % refers to the signal ratio; note: % is set by controls: 0 for no effect and ±100 for the full control effect); conditions: ER-alpha-UAS-bla HEK293, beta-lactamase ratio, antagonist mode; activity, negative = inhibition: at 76.9 µM (top of the series) unless noted
Method in brief: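 Antagonist-mode qHTS in ER-alpha-UAS-bla HEK 293 cells: compound titration, 0.5nM estradiol for 18 h, CCF4 fluorescence, Hill-derived IC50.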

[2] = biological target: Peroxisome proliferator-activated receptor gamma (Homo sapiens) (UniProt P37231); experiment: qHTS assay for small molecule antagonists of peroxisome proliferator-activated receptor gamma signaling (AID 588537; active = well fitted inhibition curve with a large enough effect in the signal ratio, with a control signal flat, not every such curve was filed as active; inconclusive = small, poorly fitted or top-dose-only effect, or effect the other way, or a change in a side signal; the % refers to the signal ratio;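 note: reporter cells co-stimulated with 50 nM rosiglitazone agonist during compound treatment; % of control where 0% means no effect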); conditions: HEK293 PPARg-UAS-bla, beta-lactamase ratio, antagonist mode; activity, negative = inhibition: at 76.8 µM (top of the series) unless noted
Method in brief: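 Compounds are tested as concentration series for inhibition of rosiglitazone-driven (50 nM) reporter expression in GeneBLAzer PPAR-gamma-UAS-bla HEK293 cells. After 16 h at 37 C, CCF4 substrate is added for 2 h at room temperature and blue/green fluorescence is measured.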

[3] = biological target: Thyroid hormone receptor beta (Homo sapiens) (UniProt P10828); experiment: qHTS assay for small molecule antagonists of thyroid hormone receptor beta signaling (AID 588547; active = well fitted inhibition curve with a large enough effect in the signal ratio, with a control signal flat, not every such curve was filed as active; inconclusive = small, poorly fitted or top-dose-only effect, or effect the other way, or a change in a side signal; the % refers to the signal ratio; note: potency is the fitted concentration of half-maximal effect); conditions: TR-UAS-bla HEK293, beta-lactamase ratio, antagonist mode, 18 h
Method in brief: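 TR-UAS-bla GripTite HEK293 cells in 2% charcoal/dextran FBS medium were preincubated 4 h at 37 C, given compound (0.59 nM to 92 uM) plus 0.4 nM T3 (final) for 18 h, then CCF4 for 2 h at RT; Hill fit gave IC50.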

[4] = qHTS assay for small molecule agonists of the antioxidant response element (ARE) signaling pathway (AID 651741; active = well fitted activation curve with a large enough effect in the signal ratio; inconclusive = small, poorly fitted or top-dose-only effect, or effect the other way, or a change in a side signal; the % refers to the signal ratio; note: potency is the fitted concentration of half-maximal effect; for activation: % of control where 0% means no effect); conditions: HepG2 ARE-bla reporter, beta-lactamase FRET ratio, 16 h; activation: at 96 µM (top of the series) unless noted
Method in brief: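 Reporter: beta-lactamase under ARE, stably in HepG2. Exposure: 16 h, 37 C, compounds delivered in DMSO by pin tool after 5 h cell preincubation. Readout: FRET substrate fluorescence after 2 h at RT.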

[5] = qHTS assay for small molecule agonists of the antioxidant response element (ARE) signaling pathway measured by Nrf2-dependant transcriptional activity (AID 720636; active = well fitted curve in the direction sought with a large enough effect in the repeat runs; inconclusive = weak or mixed curves; inactive = no such curve, though single readings can be large; an effect the other way counts as inactive or inconclusive; note: potency is the fitted concentration of half-maximal effect;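 for activation: HepG2 cells with an ARE-driven luciferase reporter; % of control where 0% means no effect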)
Method in brief: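 We exposed ARE-luc HepG2 cells, seeded in assay medium with 1% dialyzed FBS and allowed 6 hr to adhere, to test compounds overnight (16 hr, 37 C) before measuring luciferase with ONE-Glo.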

[6] = MultiTox-Fluor Cytotoxicity Assay - LYMP1-001 - Live Cells (AID 947; active = well fitted curve in the direction sought with a large enough effect; inconclusive = small, poorly fitted or top-dose-only effect, or another doubt; inactive = no such curve, though single readings can be large; an effect the other way counts as inactive or inconclusive;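 note: 0% = DMSO only and full inhibition = tetraoctylammonium bromide control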)
[7] = biological target: Glucocorticoid receptor (Homo sapiens) (UniProt P04150); experiment: qHTS assay for small molecule agonists of glucocorticoid receptor signaling (AID 588532; active = well fitted curve in the direction sought with a large enough effect in the signal ratio, with a control signal flat; inconclusive = small, poorly fitted or top-dose-only effect, or a change in a side signal; inactive = no such curve, though single readings can be large or run the other way; the % refers to the signal ratio; note: potency is the fitted concentration of half-maximal effect); conditions: HeLa MMTV-bla, beta-lactamase ratio, agonist, 18 h; activation: hits give high values, percent of dexamethasone control, DMSO zero
Method in brief: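 MMTV-bla HeLa, beta-lactamase reporter; medium with 1% charcoal/dextran-stripped FBS; cpds up to 92 uM, 18 h, 37 C; CCF4 readout 460/530 nm; Hill fit → EC50, efficacy vs 0.1 uM dexamethasone = 100%.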

[8] = biological target: Peroxisome proliferator-activated receptor delta (Homo sapiens) (UniProt Q03181); experiment: qHTS assay for small molecule antagonists of peroxisome proliferator-activated receptor delta signaling (AID 588535; active = well fitted inhibition curve with a large enough effect in the signal ratio, with a control signal flat, not every such curve was filed as active; inconclusive = small, poorly fitted or top-dose-only effect, or effect the other way, or a change in a side signal; inactive = no such curve, though single readings can be large or run the other way; the % refers to the signal ratio); conditions: HEK293T PPARd-UAS-bla, beta-lactamase FRET ratio, 18 h; activity change, negative = inhibition: at 76.7 µM (top of the series) unless noted
Method in brief: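 Inhibition of PPAR-delta response element-driven beta-lactamase expression is measured in HEK293T cells exposed to a compound titration series for 18 hrs at 37 C. Half-maximal inhibition comes from Hill equation fitting.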

[9] = biological target: Retinoic acid receptor RXR-alpha (Homo sapiens) (UniProt P19793); experiment: qHTS assay for small molecule agonists of retinoid X receptor alpha signaling (AID 588544); conditions: HEK293T RXRa-UAS-bla, beta-lactamase reporter, 18 h; activation: at 76.7 µM (top of the series);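 note: 0% = DMSO basal wells and 100% = reference agonist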
[10] = biological target: Tumor necrosis factor (Homo sapiens) (UniProt P01375); experiment: qHTS assay to identify small molecules that stimulate Tumor Necrosis Factor-alpha (TNF-alpha) secretion (AID 651757; active = well fitted curve in the direction sought with a large enough effect in the signal ratio; inconclusive = small, poorly fitted or top-dose-only effect, or a change in a side signal; inactive = no such curve, though single readings can be large or run the other way; the % refers to the signal ratio; note: 0% is about no effect); conditions: Human cells, HTRF 665/615 ratio; activation (TNF-alpha secretion): at 92.2 µM (top of the series)
Method in brief: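 Human monocytic THP-1 cells are plated, treated with compound and held at 37 C for 17 hrs. Labeled anti-TNF-alpha antibody mixture is then added; after 3 hr at room temperature, TR-FRET signal reports secreted TNF-alpha.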

[11] = qHTS assay to identify small molecules that stimulate interleukin-8 (IL-8) secretion (AID 651758; active = well fitted activation curve with a large enough effect in the signal ratio; inconclusive = small, poorly fitted or top-dose-only effect, or effect the other way, or a change in a side signal; the % refers to the signal ratio; note: 0% is about no effect); conditions: HTRF ratio (665/615); activation: at 92.2 µM (top of the series)
Method in brief: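 Quantitative HTS in THP-1 monocytic cells at 2000 cells per well, with 16 hrs compound incubation at 37 C. IL-8 in the medium was then quantified by HTRF immunoassay, read after 1-3 hrs at room temperature.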

[12] = biological target: Glucocorticoid receptor (Homo sapiens) (UniProt P04150); experiment: qHTS assay for small molecule antagonists of glucocorticoid receptor signaling (AID 588533; active = well fitted inhibition curve with a large enough effect in the signal ratio, with a control signal flat, not every such curve was filed as active; inconclusive = small, poorly fitted or top-dose-only effect, or effect the other way, or a change in a side signal; the % refers to the signal ratio;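 note: cells stimulated with 2 nM dexamethasone as agonist; % is set by controls: 0 for no effect and ±100 for the full control effect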); conditions: HeLa MMTV-bla, GRE beta-lactamase ratio, antagonist mode, 18 h; activity change, negative = inhibition: at 76.8 µM (top of the series)
[13] = biological target: Peroxisome proliferator-activated receptor gamma (Homo sapiens) (UniProt P37231); experiment: qHTS assay for small molecule agonists of peroxisome proliferator-activated receptor gamma signaling (AID 588536; active = well fitted curve in the direction sought with a large enough effect in the signal ratio, with a control signal flat, not every such curve was filed as active; inconclusive = small, poorly fitted or top-dose-only effect, or effect the other way, or a change in a side signal; inactive = no such curve, though single readings can be large or run the other way; the % refers to the signal ratio;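 note: 0% = DMSO basal wells and 100% = rosiglitazone at 2 µM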); conditions: HEK293 PPARg-UAS-bla, beta-lactamase ratio, 16 h; activation: at 76.7 µM (top of the series), percent of rosiglitazone response, DMSO as zero
Method in brief: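 Cells were plated and held 6–6.5 h at 37 C, then compounds were added as a titration series. After a further 16 h, CCF4 dye was loaded for 2 h at room temperature and emission at 460/530 nm recorded.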

[14] = qHTS assay for cell viability of HEK293 cells (AID 743288; active = well fitted curve in the direction sought with a large enough effect; inconclusive = small, poorly fitted or top-dose-only effect, or another doubt; inactive = no such curve, though single readings can be large; an effect the other way counts as inactive or inconclusive; note: % is set by controls: 0 for no effect and ±100 for the full control effect; nearly all actives have a fitted effect of over 50% in size); conditions: ATP luminescence (CellTiter-Glo), 18 h; max response: hits give low values
Method in brief: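 HEK293, 18 h, 37 C, ATP luminescence. Cells at 2,000/well were allowed at least 5 h to settle before dosing; CellTiter-Glo developed 30 min at RT.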

[15] = biological target: Retinoic acid receptor RXR-alpha (Homo sapiens) (UniProt P19793); experiment: qHTS assay for small molecule antagonists of retinoid X receptor alpha signaling (AID 588546; active = well fitted inhibition curve with a large enough effect in the signal ratio, with a control signal flat, not every such curve was filed as active; inconclusive = small, poorly fitted or top-dose-only effect, or effect the other way, or a change in a side signal; inactive = no such curve, though single readings can be large or run the other way; the % refers to the signal ratio;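 note: cells stimulated with 9-cis-retinoic acid as agonist; % is set by controls: 0 for no effect and ±100 for the full control effect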); conditions: HEK293T RXRa-UAS-bla, beta-lactamase ratio, antagonist mode
Method in brief: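 Beta-lactamase reporter inhibition, read as CCF4 fluorescence ratio (ex 405, em 460/530 nm) after 2 h at RT. HEK293T UAS-bla cells, 2500/well, were stimulated with 9-cis-RA at 500 or 100 nM final alongside test compound for 18 h at 37 C.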
Tags give direction and shape of the fitted curve or compound fluorescence and quenching.

Chain of UniProt P03372 (P03372 whole entry, looked up): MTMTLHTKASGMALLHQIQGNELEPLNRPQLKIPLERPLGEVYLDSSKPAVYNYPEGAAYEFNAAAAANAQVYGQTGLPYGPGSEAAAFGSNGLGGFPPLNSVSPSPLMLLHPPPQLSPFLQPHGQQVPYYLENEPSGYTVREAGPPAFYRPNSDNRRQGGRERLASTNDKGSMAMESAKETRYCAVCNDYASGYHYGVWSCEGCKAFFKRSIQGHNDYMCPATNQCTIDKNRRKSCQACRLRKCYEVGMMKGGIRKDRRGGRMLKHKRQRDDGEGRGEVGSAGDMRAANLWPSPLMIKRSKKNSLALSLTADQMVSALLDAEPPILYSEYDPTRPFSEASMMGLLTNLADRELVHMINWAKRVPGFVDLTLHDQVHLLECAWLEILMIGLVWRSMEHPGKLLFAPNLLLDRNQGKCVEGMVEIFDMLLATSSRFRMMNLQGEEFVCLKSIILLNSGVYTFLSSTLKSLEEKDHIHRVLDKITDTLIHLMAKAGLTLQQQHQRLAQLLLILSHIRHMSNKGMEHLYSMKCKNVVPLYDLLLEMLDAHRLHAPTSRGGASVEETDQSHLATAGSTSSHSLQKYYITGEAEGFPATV
Chain of UniProt P19793 (P19793 whole entry, looked up): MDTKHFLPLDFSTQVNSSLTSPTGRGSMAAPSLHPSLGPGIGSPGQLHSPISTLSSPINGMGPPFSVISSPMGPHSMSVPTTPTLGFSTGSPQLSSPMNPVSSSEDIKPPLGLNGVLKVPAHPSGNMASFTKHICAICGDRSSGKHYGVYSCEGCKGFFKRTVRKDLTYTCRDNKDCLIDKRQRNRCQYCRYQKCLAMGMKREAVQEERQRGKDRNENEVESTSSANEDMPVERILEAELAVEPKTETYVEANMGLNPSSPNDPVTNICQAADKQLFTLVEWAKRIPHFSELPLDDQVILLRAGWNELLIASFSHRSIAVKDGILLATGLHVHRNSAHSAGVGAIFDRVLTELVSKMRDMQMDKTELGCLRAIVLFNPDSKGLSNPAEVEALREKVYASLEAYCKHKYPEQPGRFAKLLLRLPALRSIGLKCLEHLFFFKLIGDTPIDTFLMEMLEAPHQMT
Chain of UniProt P10828 (P10828 whole entry, looked up): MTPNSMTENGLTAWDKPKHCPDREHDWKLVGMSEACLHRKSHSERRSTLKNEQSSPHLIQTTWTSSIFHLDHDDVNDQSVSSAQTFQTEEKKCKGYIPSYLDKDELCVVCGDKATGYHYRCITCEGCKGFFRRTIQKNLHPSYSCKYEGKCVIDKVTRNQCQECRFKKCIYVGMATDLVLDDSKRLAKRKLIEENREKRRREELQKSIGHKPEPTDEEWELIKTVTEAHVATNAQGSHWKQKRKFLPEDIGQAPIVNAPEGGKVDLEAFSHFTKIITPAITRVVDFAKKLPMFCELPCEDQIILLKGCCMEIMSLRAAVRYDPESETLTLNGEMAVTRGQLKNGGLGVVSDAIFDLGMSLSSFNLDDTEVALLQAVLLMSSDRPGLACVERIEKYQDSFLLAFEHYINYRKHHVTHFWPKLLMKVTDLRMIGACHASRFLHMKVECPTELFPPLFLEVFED
Chain of UniProt Q03181 (Q03181 whole entry, looked up): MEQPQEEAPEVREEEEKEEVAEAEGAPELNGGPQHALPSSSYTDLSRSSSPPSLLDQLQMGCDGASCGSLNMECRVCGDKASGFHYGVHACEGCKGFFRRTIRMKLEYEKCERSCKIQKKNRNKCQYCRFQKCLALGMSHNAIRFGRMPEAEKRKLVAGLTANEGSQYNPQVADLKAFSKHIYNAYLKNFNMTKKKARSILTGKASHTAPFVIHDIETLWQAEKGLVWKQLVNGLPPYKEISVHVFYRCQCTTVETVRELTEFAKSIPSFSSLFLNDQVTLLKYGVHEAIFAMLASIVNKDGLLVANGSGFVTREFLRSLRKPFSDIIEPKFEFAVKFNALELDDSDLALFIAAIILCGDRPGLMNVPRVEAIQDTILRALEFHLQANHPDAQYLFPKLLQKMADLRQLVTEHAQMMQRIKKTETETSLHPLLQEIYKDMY
Chain of UniProt P01375 (P01375 whole entry, looked up): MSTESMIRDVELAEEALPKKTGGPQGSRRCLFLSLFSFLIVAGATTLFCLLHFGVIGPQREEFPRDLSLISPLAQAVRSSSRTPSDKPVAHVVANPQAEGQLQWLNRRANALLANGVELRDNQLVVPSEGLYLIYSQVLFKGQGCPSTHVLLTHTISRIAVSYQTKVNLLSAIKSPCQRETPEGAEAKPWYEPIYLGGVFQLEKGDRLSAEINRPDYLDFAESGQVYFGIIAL

O=c1n(CCO)c(=O)n(CCO)c(=O)n1CCO
active: Potency [4] 30.6 µM
inconclusive: activity, negative = inhibition [1] 33.1% | activity, negative = inhibition [2] 3.47% | Potency [3] 0.0178 µM [side channel, falling, full curve, poor fit] | Potency [5] 34.4 µM [activator, partial curve, poor fit]

OC/C(Br)=C(\Br)CO
inactive: Potency [6] | Potency [1] | Potency [2] | Potency [9] | Potency [10] | Potency [11] | Potency [5]
inconclusive: Potency [7] 0.126 µM [side channel, falling, full curve, poor fit] | activity change, negative = inhibition [8] -30% | Potency [4] 75 µM [activator, partial curve, poor fit]

C/C=C/C=C/CCCCCCCO
inactive: Potency [1] | Potency [12] | Potency [2] | Potency [9] | Potency [4] | max response [14] -6.91%
inconclusive: activation [13] 9.59%

CC1(C)CC(OC(=O)CCCCCCCCC(=O)OC2CC(C)(C)NC(C)(C)C2)CC(C)(C)N1
inactive: Potency [9] | max response [15] -19.6%
inconclusive: activity, negative = inhibition [1] -133% | activity, negative = inhibition [2] 5.59% | Potency [3] 0.501 µM [cytotoxic, side channel, full curve, poor fit] | activation [4] -3.22%
